Reference: PubChem BioAssay (Tox21)
Values joined by “and” are separate entries in the source; they are usually repeats but may differ in a detail not shown here. Equal values may be shown once. This list was built around the results that the source calls inconclusive (neither active nor inactive); the mix of calls is not that of the screen. For part of these data: Where the call is inconclusive, the potency comes from a doubtful curve fit. Some compounds were tested as several samples or in several runs, with calls that do not always agree. Active and inactive are the calls of the source. Unless noted, the call rests on the fitted dose curve; in most records, active means well fitted curve in the direction sought with a large enough effect in the repeat runs; inconclusive means weak or mixed curves; inactive means no such curve, though single readings can be large; an effect the other way counts as inactive or inconclusive.

Legend:
[1] = qHTS assay for small molecule agonists of the p53 signaling pathway (AID 651631; calls by dose curve; further: nearly all actives have a fitted effect of over 15% in size; further: potency means the concentration at half of the fitted maximal effect); details: HCT-116 p53RE-bla reporter, beta-lactamase FRET ratio, 16 h; activation: at 73.3 µM (top of the series) unless noted
In short: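 Beta-lactamase reporter activity under p53 response elements was quantified in HCT-116 cells by FRET fluorescence, following 16 h incubation with test compounds at 37 °C and 2 h substrate development at room temperature.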

[2] = qHTS assay to identify small molecule antagonists of the thyroid receptor (TR) signaling pathway - cell viability counter screen (AID 743064); details: GH3.TRE-Luc viability, CellTiter-Fluor, 24 h; activity change, negative = cytotoxic: at 70.3 µM (top of the series) unless noted; further: nearly all actives have a fitted effect of over 50% in size; further: potency means the concentration at half of the fitted maximal effect
In short: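 CellTiter-Fluor readout, 30 min at 37 °C/5% CO2, following 23.5 h incubation of GH3.TRE-Luc cells with test compound and 1 nM T3 (final).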

[3] = qHTS assay to identify small molecule antagonists of the estrogen receptor alpha (ER-alpha) signaling pathway - cell viability counter screen (AID 743074; calls by dose curve;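 further: HEK293 cells carrying ER-alpha-UAS-bla reporter stimulated with 17beta-estradiol; nearly all actives have a fitted effect of over 45% in size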; further: potency means the concentration at half of the fitted maximal effect; on activity, negative = cytotoxicity: on the % scale 0 is the no-effect control and ±100 the full control effect)
[4] = target: Peroxisome proliferator-activated receptor delta (Homo sapiens) (UniProt Q03181); assay: qHTS assay to identify small molecule antagonists of the peroxisome proliferator-activated receptor delta (PPARd) signaling pathway (AID 743215; active means well fitted inhibition curve with a large enough effect in the signal ratio in the repeat runs, not every such curve was filed as active; inconclusive means weak or mixed curves, or effect the other way; inactive means no such curve, though single readings can be large or run the other way; the % refers to the signal ratio;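 further: cells stimulated with agonist L165041 at 300 nM final during compound exposure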; further: potency means the concentration at half of the fitted maximal effect); details: HEK293H PPARd-UAS-bla, beta-lactamase FRET ratio, antagonist, 17 h; ratio activity, negative = inhibition: at 62 µM (top of the series) unless noted
UniProt Q03181, sequence (Q03181 whole entry, looked up): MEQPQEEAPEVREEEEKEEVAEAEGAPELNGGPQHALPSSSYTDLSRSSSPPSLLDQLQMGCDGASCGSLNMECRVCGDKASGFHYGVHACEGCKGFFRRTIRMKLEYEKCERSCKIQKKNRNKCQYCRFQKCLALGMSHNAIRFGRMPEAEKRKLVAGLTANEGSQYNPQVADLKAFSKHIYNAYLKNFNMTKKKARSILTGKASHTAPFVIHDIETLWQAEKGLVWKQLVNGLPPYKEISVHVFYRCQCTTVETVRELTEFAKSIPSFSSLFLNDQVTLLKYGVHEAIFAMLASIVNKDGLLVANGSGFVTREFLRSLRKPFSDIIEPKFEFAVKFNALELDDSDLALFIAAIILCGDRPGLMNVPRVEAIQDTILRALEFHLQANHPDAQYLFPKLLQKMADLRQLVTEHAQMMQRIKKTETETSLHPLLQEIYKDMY
In short: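 HEK293H GeneBLAzer PPARd UAS-bla reporter cells; cpd + L165041 300 nM final, 17 h 37 C; LiveBLAzer B/G FRET substrate 2 h RT; fluorescence intensity read-out. Antagonist mode.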

[5] = target: Progesterone receptor (Homo sapiens) (UniProt P06401); assay: qHTS assay to identify small molecule antagonists of the progesterone receptor (PR) signaling pathway (AID 1346795; active means well fitted inhibition curve with a large enough effect in the signal ratio in the repeat runs, not every such curve was filed as active; inconclusive means weak or mixed curves; the % refers to the signal ratio; further: on the % scale 0 is the no-effect control and ±100 the full control effect); details: PR-UAS-bla HEK293T, beta-lactamase FRET ratio, 16 h; activity change, negative = inhibition: at 92.4 µM (top of the series) unless noted
In short: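 Stimulus R5020 at 1 nM final; cells HEK293T PR-UAS-bla; medium with 2% charcoal-stripped FBS; compound exposure 16 hr at 37C, 5% CO2; detection by FRET beta-lactamase substrate, 2 hr, room temperature.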

[6] = target: Cytochrome P450 1A2 (Homo sapiens) (UniProt P05177); assay: Cytochrome P450 Family 1 Subfamily A Member 2 (CYP1A2) small molecule antagonists: luciferase reporter qHTS assay (AID 1671199); further: nearly all actives have a fitted effect of over 50% in size; further: potency means the concentration at half of the fitted maximal effect
UniProt P05177, sequence (P05177 whole entry, looked up): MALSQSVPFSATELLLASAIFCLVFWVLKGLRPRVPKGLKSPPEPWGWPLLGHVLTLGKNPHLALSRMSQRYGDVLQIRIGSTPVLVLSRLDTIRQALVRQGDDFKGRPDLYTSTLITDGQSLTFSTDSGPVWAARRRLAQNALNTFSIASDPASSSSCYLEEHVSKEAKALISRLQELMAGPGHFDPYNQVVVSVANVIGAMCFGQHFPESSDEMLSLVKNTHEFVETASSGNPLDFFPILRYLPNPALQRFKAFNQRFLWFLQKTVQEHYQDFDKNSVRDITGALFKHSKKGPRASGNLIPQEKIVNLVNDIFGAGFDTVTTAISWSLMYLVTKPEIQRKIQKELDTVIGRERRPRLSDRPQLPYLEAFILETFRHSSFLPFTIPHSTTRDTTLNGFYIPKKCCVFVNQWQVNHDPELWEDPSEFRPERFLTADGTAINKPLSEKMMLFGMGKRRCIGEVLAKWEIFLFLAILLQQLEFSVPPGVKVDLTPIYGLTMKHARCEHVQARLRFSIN
In short: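 Luminescence readout (relative luminescence units) after luciferin detection reagent, 20 min RT. Preceded by 1 h room-temperature CYP1A2 reaction with NADPH regeneration solution following 10 min compound preincubation with enzyme and proluciferin substrate. Furafylline positive control.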

[7] = target: Estrogen receptor (Homo sapiens) (UniProt P03372); assay: qHTS assay to identify small molecule agonists of the estrogen receptor alpha (ER-alpha) signaling pathway using the BG1 cell line (AID 743079); details: BG1Luc4E2 cells, ERE-luciferase agonist, 22 h; activation: at 70.3 µM (top of the series) unless noted; further: potency means the concentration at half of the fitted maximal effect; nearly all actives have a fitted effect of over 20% in size
UniProt P03372, sequence (P03372 whole entry, looked up): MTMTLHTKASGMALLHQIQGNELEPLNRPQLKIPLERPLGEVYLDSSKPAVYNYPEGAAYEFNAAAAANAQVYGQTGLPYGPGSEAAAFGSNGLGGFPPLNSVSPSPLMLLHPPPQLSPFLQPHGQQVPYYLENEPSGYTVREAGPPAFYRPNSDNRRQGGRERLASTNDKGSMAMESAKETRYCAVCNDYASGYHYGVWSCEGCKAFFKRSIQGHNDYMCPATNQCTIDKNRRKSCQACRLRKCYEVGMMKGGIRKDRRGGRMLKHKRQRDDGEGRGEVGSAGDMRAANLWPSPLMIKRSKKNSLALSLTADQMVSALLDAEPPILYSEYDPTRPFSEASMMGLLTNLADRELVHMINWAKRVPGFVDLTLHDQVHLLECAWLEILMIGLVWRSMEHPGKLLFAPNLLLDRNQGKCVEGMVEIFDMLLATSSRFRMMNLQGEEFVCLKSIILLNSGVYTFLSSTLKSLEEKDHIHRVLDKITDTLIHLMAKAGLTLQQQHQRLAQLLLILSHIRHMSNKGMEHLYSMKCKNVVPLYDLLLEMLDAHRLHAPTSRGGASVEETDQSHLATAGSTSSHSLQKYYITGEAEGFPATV

[8] = qHTS assay to identify small molecule antagonists of the estrogen receptor alpha (ER-alpha) signaling pathway using the BG1 cell line - cell viability counter screen (AID 743081); details: BG1Luc4E2 viability, CellTiter-Fluor, 22 h; activity change, negative = cytotoxicity: at 70.3 µM (top of the series) unless noted;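 further: compound given together with 17beta-estradiol as the ER stimulus; nearly all actives have a fitted effect of over 45% in size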; further: potency means the concentration at half of the fitted maximal effect
[9] = qHTS assay for identifying genotoxic compounds that show differential cytotoxicity against isogenic chicken DT40 cell lines with known DNA damage response pathways - wild type cell line (AID 743012); details: DT40 wild type chicken cells viability, CellTiter-Glo, 40 h; activity change, negative = cytotoxicity: at 68.4 µM (top of the series) unless noted; further: nearly all actives have a fitted effect of over 60% in size; further: potency means the concentration at half of the fitted maximal effect
In short: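 CellTiter-Glo luminescence readout of viability in wild type DT40 cells after 40 h compound exposure at 37 C/5% CO2; 300 cells/well; reagent incubated 30 min at room temperature before reading.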

[10] = qHTS assay for identifying genotoxic compounds that show differential cytotoxicity against isogenic chicken DT40 cell lines with known DNA damage response pathways - Rev3 mutant cell line (AID 743014); details: chicken DT40 Rev3-/- viability, CellTiter-Glo, 40 h; activity, negative = cytotoxicity: at 68.4 µM (top of the series) unless noted; further: nearly all actives have a fitted effect of over 55% in size; further: potency means the concentration at half of the fitted maximal effect
[11] = target: Peroxisome proliferator-activated receptor gamma (Homo sapiens) (UniProt P37231); assay: qHTS assay to identify small molecule antagonists of the peroxisome proliferator-activated receptor gamma (PPARg) signaling pathway (AID 743191; calls by dose curve; further: on the % scale 0 is the no-effect control and ±100 the full control effect; nearly all actives have a fitted effect of over 30% in size); details: HEK293H PPARg-UAS-bla, beta-lactamase ratio, antagonist, 17 h
UniProt P37231, sequence (P37231 whole entry, looked up): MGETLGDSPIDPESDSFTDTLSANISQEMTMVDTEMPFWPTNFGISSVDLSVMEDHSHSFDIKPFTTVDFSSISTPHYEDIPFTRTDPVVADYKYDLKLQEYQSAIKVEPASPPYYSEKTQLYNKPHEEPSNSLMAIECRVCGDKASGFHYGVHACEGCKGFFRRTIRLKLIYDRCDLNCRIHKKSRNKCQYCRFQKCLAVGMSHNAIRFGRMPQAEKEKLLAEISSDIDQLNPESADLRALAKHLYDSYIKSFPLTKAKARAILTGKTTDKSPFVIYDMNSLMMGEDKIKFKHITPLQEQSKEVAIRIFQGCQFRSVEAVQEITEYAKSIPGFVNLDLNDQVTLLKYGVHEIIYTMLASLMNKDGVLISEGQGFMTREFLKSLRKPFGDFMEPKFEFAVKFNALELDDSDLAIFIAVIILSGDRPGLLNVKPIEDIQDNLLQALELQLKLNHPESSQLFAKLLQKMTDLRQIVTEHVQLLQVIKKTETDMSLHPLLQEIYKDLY
In short: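 Beta-lactamase reporter under UAS control in HEK293H PPARg-bla cells; compound treatment 17 h at 37C. Read-out: fluorescence intensity after 1 h room-temperature incubation with LiveBLAzer B/G FRET substrate.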

[12] = qHTS assay for small molecule agonists of the antioxidant response element (ARE) signaling pathway (AID 743202; active means well fitted activation curve with a large enough effect in the signal ratio in the repeat runs, not every such curve was filed as active; inconclusive means weak or mixed curves, or effect the other way; inactive means no such curve, though single readings can be large or run the other way; the % refers to the signal ratio; further: potency means the concentration at half of the fitted maximal effect); details: HepG2 ARE-bla reporter, beta-lactamase FRET, 16 h
In short: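 After 16 hours of compound treatment at 37 C, HepG2 cells with a stably integrated ARE-driven beta-lactamase reporter were loaded 2 hours at room temperature with LiveBLAzer B/G FRET substrate and fluorescence intensity measured.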

[13] = qHTS assay for small molecule disruptors of the mitochondrial membrane potential (AID 720635); details: HepG2 mitochondrial membrane potential, Mito-MPS dye ratio; further: potency means the concentration at half of the fitted maximal effect
In short: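 Mitochondrial membrane potential tracked with Mito-MPS dye, red aggregates (ex 540/em 590 nm) against green monomers (ex 490/em 535 nm). Compound treatment 1 hr at 37C, dye 30 min in HepG2.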

[14] = target: Glucocorticoid receptor (Homo sapiens) (UniProt P04150); assay: qHTS assay to identify small molecule antagonists of the glucocorticoid receptor (GR) signaling pathway (AID 720692; active means well fitted inhibition curve with a large enough effect in the signal ratio in the repeat runs, not every such curve was filed as active; inconclusive means weak or mixed curves, or effect the other way; inactive means no such curve, though single readings can be large or run the other way; the % refers to the signal ratio; further: on the % scale 0 is the no-effect control and ±100 the full control effect); details: GR-bla HeLa, beta-lactamase FRET ratio, dexamethasone-stimulated, 18 h; activity change, negative = inhibition: at 58.5 µM (top of the series) unless noted
UniProt P04150, sequence (P04150 whole entry, looked up): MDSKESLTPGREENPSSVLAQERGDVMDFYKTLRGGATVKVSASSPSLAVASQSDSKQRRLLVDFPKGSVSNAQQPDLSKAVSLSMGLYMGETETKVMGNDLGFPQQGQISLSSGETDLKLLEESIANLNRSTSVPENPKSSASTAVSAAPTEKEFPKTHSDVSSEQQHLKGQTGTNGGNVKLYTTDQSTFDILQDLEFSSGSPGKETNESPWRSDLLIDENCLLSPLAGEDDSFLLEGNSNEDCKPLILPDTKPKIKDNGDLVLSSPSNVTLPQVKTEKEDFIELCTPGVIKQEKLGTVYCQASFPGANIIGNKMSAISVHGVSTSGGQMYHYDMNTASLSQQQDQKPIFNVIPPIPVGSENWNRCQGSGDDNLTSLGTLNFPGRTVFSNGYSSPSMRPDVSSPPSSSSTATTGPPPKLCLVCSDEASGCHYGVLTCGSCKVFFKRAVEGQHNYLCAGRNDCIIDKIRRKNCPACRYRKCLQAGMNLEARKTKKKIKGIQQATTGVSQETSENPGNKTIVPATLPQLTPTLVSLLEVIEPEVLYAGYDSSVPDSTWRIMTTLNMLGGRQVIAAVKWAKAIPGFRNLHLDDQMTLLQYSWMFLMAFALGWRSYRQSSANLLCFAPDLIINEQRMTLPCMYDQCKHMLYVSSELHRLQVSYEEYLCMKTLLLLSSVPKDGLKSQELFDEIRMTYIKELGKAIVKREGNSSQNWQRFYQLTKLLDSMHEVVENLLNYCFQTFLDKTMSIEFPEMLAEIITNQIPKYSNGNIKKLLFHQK
In short: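 Read-out: beta-lactamase FRET substrate fluorescence, 2 h at room temperature, in HeLa cells stably carrying a GRE-driven bla reporter. Compounds were co-incubated with 5 nM dexamethasone agonist (final) for 18 h at 37 C.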

[15] = target: Cytochrome P450 2C19 (Homo sapiens) (UniProt P33261); assay: Cytochrome P450 Family 2 Subfamily C Member 19 (CYP2C19) small molecule antagonists: luciferase reporter qHTS assay (AID 1671197); further: on the % scale 0 is the no-effect control and ±100 the full control effect; nearly all actives have a fitted effect of over 65% in size
UniProt P33261, sequence (P33261 whole entry, looked up): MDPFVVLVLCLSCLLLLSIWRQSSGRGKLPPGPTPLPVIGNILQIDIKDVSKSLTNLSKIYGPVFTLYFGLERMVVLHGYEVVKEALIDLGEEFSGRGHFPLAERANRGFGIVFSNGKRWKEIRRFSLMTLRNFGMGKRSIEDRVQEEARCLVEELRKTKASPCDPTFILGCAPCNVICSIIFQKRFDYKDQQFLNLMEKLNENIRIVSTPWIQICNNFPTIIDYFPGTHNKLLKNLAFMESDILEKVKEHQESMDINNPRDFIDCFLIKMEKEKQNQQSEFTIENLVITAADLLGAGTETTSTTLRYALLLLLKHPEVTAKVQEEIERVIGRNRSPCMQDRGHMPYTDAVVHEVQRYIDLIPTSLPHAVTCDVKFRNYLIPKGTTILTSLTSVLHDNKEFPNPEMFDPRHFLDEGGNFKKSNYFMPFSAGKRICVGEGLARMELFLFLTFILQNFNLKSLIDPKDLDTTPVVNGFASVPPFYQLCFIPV
In short: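 First, compounds are pinned into enzyme-substrate mix and held 10 min at room temperature. Second, NADPH regeneration solution is added and plates incubate 1 h at 37C. Third, detection reagent is added and luminescence read after 20 min.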

[16] = target: Vitamin D3 receptor (Homo sapiens) (UniProt P11473); assay: qHTS assay to identify small molecule antagonists of the vitamin D receptor (VDR) signaling pathway (AID 743223; active means well fitted inhibition curve with a large enough effect in the signal ratio in the repeat runs, not every such curve was filed as active; inconclusive means weak or mixed curves, or effect the other way; inactive means no such curve, though single readings can be large or run the other way; the % refers to the signal ratio; further: on the % scale 0 is the no-effect control and ±100 the full control effect); details: VDR-UAS-bla HEK293T, beta-lactamase FRET ratio, 16 h
UniProt P11473, sequence (P11473 whole entry, looked up): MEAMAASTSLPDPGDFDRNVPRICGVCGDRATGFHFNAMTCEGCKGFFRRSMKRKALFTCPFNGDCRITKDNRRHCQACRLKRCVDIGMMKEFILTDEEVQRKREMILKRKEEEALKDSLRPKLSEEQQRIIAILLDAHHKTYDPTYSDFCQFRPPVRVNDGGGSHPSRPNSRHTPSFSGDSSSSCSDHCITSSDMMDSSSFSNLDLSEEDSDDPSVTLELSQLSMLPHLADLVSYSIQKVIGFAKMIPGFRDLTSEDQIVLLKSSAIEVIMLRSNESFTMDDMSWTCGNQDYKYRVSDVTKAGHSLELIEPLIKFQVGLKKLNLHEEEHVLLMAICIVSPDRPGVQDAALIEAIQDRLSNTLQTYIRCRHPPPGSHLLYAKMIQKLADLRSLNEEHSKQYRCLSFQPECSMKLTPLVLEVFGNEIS
In short: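 Inhibition of agonist-driven VDR signalling is scored in VDR-bla cells: 3 nM final 1alpha,25-dihydroxyvitamin D3 plus compound, 16 h at 37C, then beta-lactamase detection by FRET substrate fluorescence after 2 h.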

[17] = target: Cytochrome P450 2C9 (Homo sapiens) (UniProt P11712); assay: Cytochrome P450 Family 2 Subfamily C Member 9 (CYP2C9) small molecule antagonists: luciferase reporter qHTS assay (AID 1671198); further: potency means the concentration at half of the fitted maximal effect; nearly all actives have a fitted effect of over 50% in size
UniProt P11712, sequence (P11712 whole entry, looked up): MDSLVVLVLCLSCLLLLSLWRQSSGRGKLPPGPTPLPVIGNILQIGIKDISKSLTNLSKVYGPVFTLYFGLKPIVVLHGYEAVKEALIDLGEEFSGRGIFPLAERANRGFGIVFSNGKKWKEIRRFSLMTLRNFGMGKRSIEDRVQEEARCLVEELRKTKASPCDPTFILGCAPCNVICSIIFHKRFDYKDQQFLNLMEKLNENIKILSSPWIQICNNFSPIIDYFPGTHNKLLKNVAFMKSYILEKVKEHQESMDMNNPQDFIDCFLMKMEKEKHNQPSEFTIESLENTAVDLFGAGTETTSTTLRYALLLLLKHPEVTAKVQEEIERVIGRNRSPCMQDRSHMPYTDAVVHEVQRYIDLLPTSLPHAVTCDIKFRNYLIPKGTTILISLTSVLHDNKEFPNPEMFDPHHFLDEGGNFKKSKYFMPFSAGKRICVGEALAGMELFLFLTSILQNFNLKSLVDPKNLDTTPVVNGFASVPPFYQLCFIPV
In short: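 Enzyme-substrate mix preincubated with compound 10 min at room temperature; reaction started with NADPH regeneration solution, 1 h 37C. Luminescent luciferin product read after 20 min detection reagent.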

[18] = qHTS assay to identify small molecule agonists of the progesterone receptor (PR) signaling pathway - cell viability counter screen (AID 1346799; calls by dose curve; further: on the % scale 0 is the no-effect control and ±100 the full control effect; nearly all actives have a fitted effect of over 45% in size)
In short: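 Multiplexed viability read: CellTiter-Glo luminescence, 30 min RT, following LiveBLAzer FRET measurement on PR-UAS-bla HEK293T cells exposed to compounds 16 hr.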

[19] = ratio activity, negative = inhibition: at 62.6 µM (top of the series) unless noted
[20] = activation: at 73.3 µM (top of the series) unless noted
[21] = ratio activity, negative = MMP loss: at 83.2 µM (top of the series) unless noted
Tags describe the fitted curve by direction and shape or compound fluorescence and quenching.

In the case of CCC=O, the Potency [1] is reported as inconclusive: 27.8 µM [activator, single point], the Potency [2] is reported as inconclusive: 78.4 µM [rising, single point] and the Potency [3] is reported as “inactive”. For the same compound, the ratio activity, negative = inhibition [4] was inconclusive: -2.14% [at 80.4 µM], the Potency [5] was “inactive” and the Potency [6] was inconclusive: 72.4 µM [inhibitor, partial curve, poor fit].

With COc1cc([C@@H]2c3cc4c(cc3C(O[C@@H]3O[C@@H]5CO[C@@H](C)O[C@H]5[C@H](O)[C@H]3O)C3COC(=O)[C@@H]32)OCO4)cc(OC)c1OP(=O)(O)O (stereo not given in full) the Potency [2] was inconclusive: 18.8 µM [cytotoxic, partial curve, poor fit] and inconclusive: 29.8 µM [cytotoxic, single point], the Potency [7] was active: 11.9 µM and the Potency [8] was inconclusive: 10.6 µM [cytotoxic, partial curve, poor fit] and inconclusive: 7.5 µM [cytotoxic, single point].

In the case of CCCCN=C(N)N=C(N)N, the Potency [9] is reported as inconclusive: 33.5 µM [cytotoxic, single point], the Potency [10] is reported as inconclusive: 33.5 µM [cytotoxic] and the Potency [8] is reported as “inactive”. The Potency [11, 19] was “inactive”, the Potency [12, 20] was inconclusive: 13.3 µM [rising, full curve] and the Potency [6] was inconclusive: 27.5 µM [inhibitor, partial curve].

In the case of CN1[C@@H]2CC[C@H]1CC(NC(=O)n1c(=O)[nH]c3ccccc31)C2 (stereo not given in full), the Potency [1] is reported as “inactive”, the ratio activity, negative = MMP loss [13, 21] is reported as inconclusive: 0.166% and the Potency [9] is reported as “inactive”. For the same compound, the Potency [3] was “inactive”, the Potency [11, 19] was “inactive” and the activation [12, 20] was inconclusive: -15%. For the same compound, the Potency [6] was “inactive”.

For COc1cc(NS(=O)(=O)c2ccc(N)cc2)ncn1, the activation [1] was inconclusive: 1.55% [activator] [at 34.7 µM], the ratio activity, negative = MMP loss [13, 21] was inconclusive: -1.88% [at 39.1 µM] and the ratio activity, negative = inhibition [11, 19] was inconclusive: -1.28%.

In the case of NC(=O)NC(=O)Cc1ccccc1, the Potency [7] is reported as active: 33.5 µM, the Potency [4] is reported as inconclusive: 0.211 µM [rising, full curve, poor fit] and the Potency [6] is reported as inconclusive: 28.8 µM [inhibitor, partial curve, poor fit].

For CCOc1cc(NC(C)=O)ccc1C(=O)OC, the Potency [14] was “inactive”, the Potency [10] was “inactive” and the Potency [11, 19] was “inactive”. The Potency [15] was “inactive”.

For O=S(=O)(O)c1ccc2cc(O)ccc2c1, the ratio activity, negative = MMP loss ([13]; at 83.2 µM (top of the series)) was inactive: 9.89% and inactive: 19.3%, the ratio activity, negative = MMP loss ([13]; at 95.3 µM (top of the series)) was inactive: 7.31% and the ratio activity, negative = MMP loss [13, 21] was inconclusive: -5.77%. For the same compound, the Potency [10] was inconclusive: 61.7 µM [rising, partial curve, poor fit], the Potency [2] was inconclusive: 61.7 µM [rising, partial curve, poor fit] and the Potency [3] was inconclusive: 24.8 µM [cytotoxic, partial curve, poor fit]. For the same compound, the ratio activity, negative = inhibition ([11]; at 62.6 µM (top of the series)) was inactive: -6.81% and inactive: -9.37%, the ratio activity, negative = inhibition ([11]; at 81.1 µM (top of the series)) was inactive: -10.2% and the ratio activity, negative = inhibition [11, 19] was inconclusive: 4.24%. For the same compound, the activation [12, 20] was inconclusive: 18.9% [at 94.8 µM], the activation ([12]; at 73.3 µM (top of the series)) was inactive: 2.77% and inactive: -15.5% and inactive: -2.82% and the activity change, negative = inhibition ([16]; activity change, negative = inhibition: at 61 µM (top of the series) unless noted) was inconclusive: -7.04%. The activity change, negative = inhibition ([16]; at 61 µM (top of the series)) was inactive: -4.89% and inactive: -3.01%, the activity change, negative = inhibition ([16]; at 78.8 µM (top of the series)) was inactive: 8.11% and the Potency [17] was inconclusive: 71 µM [inhibitor, partial curve, poor fit]. The Potency [6] was “inactive and active: 39.9 µM and inconclusive: 71 µM [inhibitor, partial curve]”.

For CCN(CC)CCOc1ccc(-c2nc3cc(Cl)ccc3s2)cc1, the Potency [1] was inconclusive: 33.5 µM [cytotoxic], the Potency [13, 21] was inconclusive: 11.9 µM [activator, full curve] and the activity change, negative = inhibition [14] was inconclusive: -39%. The Potency [9] was active: 0.944 µM, the Potency [2] was active: 8.41 µM and the Potency [7] was inconclusive: 33.5 µM [inhibitor, single point].

In the case of CCC(=O)c1ccc2c(c1)N(CCCN1CCN(CCO)CC1)c1ccccc1S2, the Potency [1] is reported as inconclusive: 33.5 µM [cytotoxic], the Potency [13, 21] is reported as inconclusive: 9.44 µM [activator, partial curve] and the activity change, negative = inhibition [14] is reported as inconclusive: -33.9%. The Potency [2] was active: 10.6 µM and the Potency [8] was inconclusive: 15 µM [cytotoxic].

In the case of CN1CCCN=C1/C=C/c1cccs1, the Potency [1] is reported as “inactive”, the Potency [3] is reported as inconclusive: 26.8 µM [rising, single point] and the Potency [7] is reported as active: 7.5 µM. For the same compound, the Potency [8] was “inactive”, the Potency [12, 20] was inconclusive: 29.8 µM [rising, partial curve, poor fit] and the Potency [18] was “inactive”.

In the case of C=C[C@]1(C)C[C@@H](OC(=O)CSCCN(CC)CC)[C@]2(C)[C@H](C)CC[C@]3(CCC(=O)[C@H]32)[C@@H](C)[C@@H]1O, the Potency [1] is reported as inconclusive: 13.3 µM [rising, single point], the Potency [13, 21] is reported as “inactive” and the Potency [8] is reported as active: 10.6 µM.

In the case of O=C(O)[C@H](CC(=O)N1C[C@H]2CCCC[C@H]2C1)Cc1ccccc1, the Potency [1] is reported as “inactive”, the Potency [14] is reported as “inactive” and the Potency [9] is reported as inconclusive: 33.5 µM [cytotoxic, single point]. The Potency [10] was inconclusive: 15 µM [rising, partial curve, poor fit], the Potency [2] was “inactive” and the Potency [3] was inconclusive: 12 µM [rising, full curve, poor fit]. For the same compound, the Potency [7] was active: 33.5 µM.
